Experimental data: PubChem BioAssay AID360 (National Center for Advancing Translational Sciences (NCATS), 2006)
About 550 (1.1%) of roughly 48,000 compounds were called active. The shares of active, inactive and inconclusive entries below differ from those in the screen. No stated cut-off is given here; in the data, active means potency below about 15 µM; inconclusive means mostly about 16 µM to 33 µM; inactive means weaker than that. Potencies beside an inconclusive call are fits to weak or partial responses and may not hold up.

target: Lysosomal acid glucosylceramidase (Homo sapiens) (UniProt P04062); assay: Glucocerebrosidase; conditions: purified enzyme, resorufin glucoside fluorescence (screen aimed at inhibitors), 20 min;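 further: the screen sought inhibitors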
How it was run: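 Normal human glucocerebrosidase (0.2 nM final) was assayed with resorufin β-D-glucopyranoside (30 uM final) in 50mM citric acid/KH2PO4, 10mM sodium taurocholate, 0.01% tween-20, pH 5.9. Compounds were titrated; fluorescence (Ex 548, Em 600) read after 20 min at RT.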
Potency means the concentration at half of the fitted maximal effect.

Sequence of UniProt P04062 (P04062 whole entry, looked up): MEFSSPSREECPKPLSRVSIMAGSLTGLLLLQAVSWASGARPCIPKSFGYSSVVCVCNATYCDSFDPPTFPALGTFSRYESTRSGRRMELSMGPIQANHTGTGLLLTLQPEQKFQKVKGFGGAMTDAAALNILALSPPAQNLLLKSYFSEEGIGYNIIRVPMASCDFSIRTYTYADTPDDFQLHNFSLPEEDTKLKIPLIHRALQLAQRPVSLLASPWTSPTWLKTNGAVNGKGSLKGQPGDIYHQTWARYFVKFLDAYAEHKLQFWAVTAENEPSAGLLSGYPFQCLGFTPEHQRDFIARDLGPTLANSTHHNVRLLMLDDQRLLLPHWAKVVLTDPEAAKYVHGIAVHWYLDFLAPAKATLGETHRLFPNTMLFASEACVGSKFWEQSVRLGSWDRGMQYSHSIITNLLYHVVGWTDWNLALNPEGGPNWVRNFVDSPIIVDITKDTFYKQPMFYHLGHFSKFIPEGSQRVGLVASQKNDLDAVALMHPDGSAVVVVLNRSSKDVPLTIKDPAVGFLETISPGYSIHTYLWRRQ

Potency, inconclusive:
CC(C)(C)c1cc(C(F)(F)F)nc(SCCCNC(=O)c2ccco2)n1 21.2 µM [decreasing]
O=S(=O)(c1ccc(Cl)s1)N1CCN(C/C=C/c2ccccc2)CC1 20.8 µM [decreasing]
COc1ccc(OC)c(-c2cc(C(=O)NCCN3CCOCC3)no2)c1 23.7 µM [decreasing]
N#CC1=C(N)SC(N)=C(C#N)C1c1ccc(C(F)(F)F)cc1 18.1 µM [decreasing]
Nc1nc2ccc(C(=O)NC3CCCCC3)cc2s1 25.2 µM [decreasing]
Cc1ccc(NC(=O)CS(=O)CC(=O)N(C2CCCC2)C(C)C(=O)NC2CCCCC2)cc1 (stereo unspecified) 16.8 µM [decreasing]
Cc1cc(NC(=O)CN2CCC(n3nnc4cc(C(F)(F)F)ccc43)CC2)no1 29 µM [decreasing]
O=C(CCC(=O)c1cccs1)OCC(=O)N1CCN(C(=O)c2ccco2)CC1 28 µM [increasing]
O=C(Nc1ccc2c(c1)OCCO2)c1ccc(CN2CCOCC2)cc1 25.4 µM [decreasing]
CCOC(=O)SC1=N/C(=C\c2ccc(N(C)C)cc2)C(=O)S1 16 µM [increasing]
CC1CCCc2sc3nc(N4CCN(CCO)CC4)n4ncnc4c3c21 (stereo unspecified) 26.4 µM [decreasing]
O=C1c2oc3ccccc3c(=O)c2C(c2cccnc2)N1Cc1ccco1 (stereo unspecified) 20.6 µM [increasing]
CC(=O)NC(Cc1ccc(C(C)C)cc1)C(=O)NC1CCN(c2nc(C)cc(C)n2)CC1 (stereo unspecified) 21 µM [decreasing]
Cc1c(C(=O)Nc2ccccc2)sc2nc(-c3ccccc3)cn12 16.8 µM [decreasing]
Clc1ccc2nc(CN3CCCc4ccccc43)cn2c1 20.3 µM [decreasing]
Cc1noc(C)c1S(=O)(=O)N1CCCC(C(=O)NCCc2ccc(Cl)cc2)C1 (stereo unspecified) 15.9 µM [decreasing]
CC(C)(C)c1ccc(C(=O)CCCSC2=C(C#N)C(c3ccco3)C3=C(CCCC3=O)N2)cc1 (stereo unspecified) 24.6 µM [decreasing]
Cc1cc(NC(=O)CCCS(=O)(=O)c2nc(-c3cccs3)cc(C(F)(F)F)n2)no1 25.2 µM [decreasing]
CCc1nnc(NC(=O)CSc2nnc(Cc3ccccc3)o2)s1 27.5 µM [decreasing]
CC(C)Cn1c(N)c(C(=O)COC(=O)c2ccc3c(c2)OCCO3)c(=O)n(C)c1=O 28.5 µM [decreasing]
CCCCc1ccc(S(=O)(=O)NCCc2ccncc2)cc1 30.3 µM [decreasing]
CN(C)/C=C(\C#N)c1nc2ccccc2[nH]1 31.9 µM [decreasing]
CCc1cccc(NC(=O)C2CCCN(S(=O)(=O)c3c(C)[nH]c(=O)[nH]c3=O)C2)c1 (stereo unspecified) 27.4 µM [decreasing]
Cc1cc(C)n(-c2ccc(C(=O)NC3=NCCS3)cc2)n1 16.5 µM [decreasing]
COCc1nnc(NC(=O)c2cccs2)s1 23.4 µM [decreasing]
O=C(Nc1cccc(F)c1)c1ccc2c(c1)OCO2 23.6 µM [decreasing]
N#CC1=C(N)OC(c2ccccc2)=C(C#N)C1c1ccc2c(c1)OCO2 (stereo unspecified) 19.5 µM [decreasing]
O=C(CSc1nnc(-c2ccc(NS(=O)(=O)c3ccccc3)cc2)o1)NCC1CCCO1 (stereo unspecified) 17.1 µM [decreasing]
Cc1cc(CCN2CCC(=O)NC2=O)ccc1OC(C)C 18.9 µM [decreasing]
CCN(CC)S(=O)(=O)c1ccc(C(=O)NCC(c2cccs2)N2CCOCC2)cc1 (stereo unspecified) 29.2 µM [decreasing]
CCOC(=O)c1ccc2c(c1)nc(C1CCN(S(=O)(=O)c3cccs3)CC1)n2CC 21.6 µM [decreasing]
O=C1c2ccccc2C(=O)N1CC#CCN1CCN(C2CCCCC2)CC1 18.6 µM [decreasing]
COc1ccccc1Nc1nc(NCCO)c2ccccc2n1 24.2 µM [decreasing]
CCCC(=O)Nc1ccc(NC(=O)C23CC4CC(CC(C4)C2)C3)cn1 24.9 µM [decreasing]
COc1ccccc1C(=O)Nc1ccc2c(c1)nc(CN1CCN(C(C)=O)CC1)n2C 19.5 µM [decreasing]
O=C(NCCCn1ccnc1)c1noc2c1CCCC2 16.3 µM [decreasing]
O=C(Cc1cccs1)N1CCCC(c2nc3c(nnn3Cc3ccccc3Cl)c(=O)[nH]2)C1 (stereo unspecified) 19.6 µM [decreasing]

Potency, inactive:
O=C(CSc1ccc2nnc(-c3ccc(F)cc3)n2n1)NCc1ccco1 > 76.9 µM
CN1CC=C2C(C#N)=C(N)C(C#N)(C#N)C(c3cccc(Cl)c3Cl)C2C1 (stereo unspecified)
COc1ccc(N2CC(C)Cn3c2nc2c3c(=O)n(CCN3CCOCC3)c(=O)n2C)cc1 (stereo unspecified) > 76.9 µM
O=C(CN1CCC(c2nc3ccccc3[nH]2)CC1)NCc1ccc2c(c1)OCO2 > 76.9 µM
COC(=O)COc1nc(C)c2c(c1C#N)CC(C)(C)OC2 > 76.9 µM
Cc1cc(C)nc(N2CCCC(C(=O)NCCC3=CCCCC3)C2)n1 (stereo unspecified) > 76.9 µM
COc1ccccc1-c1cc(C(=O)Nc2cc(C)on2)no1 > 76.9 µM
CCOC(=O)c1c(C)oc2c1c(C=NC1CCS(=O)(=O)C1)c(O)c1ccccc12 (stereo unspecified) > 76.9 µM
CCOC(=O)c1cnc(SCc2nc(N)nc(Nc3ccccc3)n2)nc1N > 76.9 µM
O=C(Nc1ccc(N2CCCCC2)cc1)c1ccc(F)cc1 > 76.9 µM
N#CC(C(=O)NC1CCCCC1)c1nc2ccccc2nc1N1CCCCC1 (stereo unspecified) > 76.9 µM
NC(=O)c1c(N)sc2c1CCCC2 > 76.9 µM
Cc1cccc(C)c1NC(=O)C(c1cccs1)N(Cc1ccco1)C(=O)Cn1nnc2ccccc21 (stereo unspecified)
C=CCn1c(SCc2cccnc2)nnc1-c1ccncc1 > 76.9 µM
Cc1ccc(N2CCN(S(=O)(=O)c3ccc(F)c(C)c3)CC2)c(C)c1 > 76.9 µM
COc1cc(OC)nc(NC(=O)NS(=O)(=O)c2ccc(OC(F)(F)F)cc2)n1 > 76.9 µM
COc1cc2c(cc1OC)-c1cc(NC3CCCCC3)nc(=O)n1CC2 > 76.9 µM
Cc1cc(N2CCN(C3CCCC3)CC2)n2ncc(-c3ccccc3)c2n1 > 76.9 µM
O=C(O)CSc1nc2ccccc2o1 > 76.9 µM
COc1ccc2c(c1)Cc1sc(NC(C)=O)nc1-2 > 76.9 µM
CCn1c(=O)c(C(=O)NCc2cccnc2)c(O)c2ccccc21 > 76.9 µM
O=C(c1ccco1)N1c2ccccc2Sc2ccccc21 > 76.9 µM
COC(=O)c1ccccc1NC(=O)CSc1nc(-c2ccco2)cc(C(F)(F)F)n1 > 76.9 µM
CN1CCN(S(=O)(=O)c2ccc(NC(=O)c3ccc(Br)o3)cc2)CC1

Potency, active:
CCOc1ccc(Nc2cc(C)nc(N3CCOCC3)n2)cc1 3.43 µM
CCOC(=O)c1c(C)[nH]c(C(=O)COC(=O)CCC(=O)c2ccc3c(c2)OCCO3)c1C 11.4 µM
COC(=O)c1ccc(C2C(C#N)=C(C)NC3=C2C(=O)CC(C)(C)C3)cc1 (stereo unspecified) 12.2 µM
CCOC(=O)c1c(C)[nH]c(C(=O)COC(=O)C2CC2C)c1C (stereo unspecified) 7.76 µM
C=CCNc1nc(N2CCCC2)nc2ccccc12 10.6 µM
CCc1ccc(CCC(=O)Nc2nnc(CC)s2)o1 11.5 µM
CC(C)C(=O)Nc1ccc(NC(=O)c2cc3ccccc3o2)cc1 9.78 µM
COC(=O)c1sccc1NC(=O)c1csc(C)c1 12.8 µM
Cc1cc(N2CCOCC2)nc2ccc(NC(=O)C3CCC(C)CC3)cc12 (stereo unspecified) 0.0606 µM
Cn1c(=N)n(CC(=O)C(C)(C)C)c2ccccc21 13.1 µM
